# Assay results as given in the supplement of paper PMC9135407.
# “And” between values parts separate entries of the source, which are not always exact repeats. Equal entries are not always repeated. Structures can show the parent of a compound that is named as a salt. Out of some 5,800 compounds screened, about 620 (11%) showed activity.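 The calls were made as follows: active = score above a cut-off or among the top three wells of a plate; in these data no inactive exceeds 0.85.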 The list shows a part of the results, in another mix than the full data.
# System: primary human hepatic stellate cells (donor 1)
# Experiment: scaled lipid accumulation score (0 = DMSO-like, 1 = nortriptyline-like); higher = stronger HSC inactivation (lipid re-accumulation), active = hit call of the paper
# Details: 48 h
# [1] = library stock concentration: 1 mM
# [2] = library stock concentration: 10 mM
# [3] = library stock concentration: 3.33 mM
smiles,measurement,setting,value
O=C(O)COc1ccc(C(=O)c2cccs2)c(Cl)c1Cl [Tienilic Acid],scaled lipid accumulation score,[1],inactive: ≤ 0
Cn1nnc2c(C(N)=O)ncn2c1=O,scaled lipid accumulation score,[2],inactive: ≤ 0
Cn1nnc2c(C(N)=O)ncn2c1=O [Temozolomide],scaled lipid accumulation score,[3],inactive: ≤ 0
same,scaled lipid accumulation score,[2],inactive: ≤ 0 and inactive: 0.013
CC(C)[C@@H]1NC(=O)[C@H](Cc2ccccc2)NC(=O)[C@@H](CC(=O)O)NC(=O)CNC(=O)[C@H](CCCN=C(N)N)NC1=O [Cyclo [Arg-Gly-Asp-D-Phe-Val]],scaled lipid accumulation score,library stock concentration: 8.7 mM,inactive: ≤ -0.003
"CN1[C@@H]2CC[C@H]1C[C@@H](OC(=O)C(O)c1ccccc1)C2 (mixture of isomers) [Homatropine hydrobromide (R,S)]",scaled lipid accumulation score,,inactive: 0.043
CN1[C@@H]2CC[C@H]1C[C@@H](OC(=O)C(O)c1ccccc1)C2 (mixture of isomers) [DL-Homatropine hydrobromide],scaled lipid accumulation score,[2],inactive: 0.242
CC(C)(C)CC(C)(C)c1ccc(OCCOCC[N+](C)(C)Cc2ccccc2)cc1 [Benzethonium chloride],scaled lipid accumulation score,,inactive: 0.399
same,scaled lipid accumulation score,library stock concentration: 4.5 mM,inactive: ≤ -0.001
same,scaled lipid accumulation score,[2],inactive: 0.191
CC(C)(C)CC(C)(C)c1ccc(OCCOCC[N+](C)(C)Cc2ccccc2)cc1 [Benzethonium Chloride],scaled lipid accumulation score,[3],inactive: ≤ 0
same,scaled lipid accumulation score,[2],inactive: 0.541
COc1ccc(CCC(=O)c2c(O)cc(O[C@@H]3O[C@H](CO)[C@@H](O)[C@H](O)[C@H]3O[C@@H]3O[C@@H](C)[C@H](O)[C@@H](O)[C@H]3O)cc2O)cc1O [Neohesperidin dihydrochalcone],scaled lipid accumulation score,[2],inactive: ≤ 0
NS(=O)(=O)c1nn2cc(-c3ccccc3)nc2s1,scaled lipid accumulation score,[2],inactive: 0.481
Cl.OCCN1CCN(CC/C=C2/c3ccccc3Sc3ccc(Cl)cc32)CC1 [Zuclopenthixol hydrochloride],scaled lipid accumulation score,,active: 0.995
Nc1ccc(/N=N/c2ccccc2)c(N)n1 [Phenazopyridine HCl],scaled lipid accumulation score,[3],inactive: 0.027
same,scaled lipid accumulation score,[2],inactive: 0.095
Nc1ccc(/N=N/c2ccccc2)c(N)n1 [Phenazopyridine hydrochloride],scaled lipid accumulation score,,inactive: ≤ 0
same,scaled lipid accumulation score,library stock concentration: 8 mM,inactive: ≤ -0.001
same,scaled lipid accumulation score,[2],inactive: ≤ 0
C[C@H](N[C@@H](CCc1ccccc1)C(=O)O)C(=O)N1Cc2ccccc2C[C@H]1C(=O)O,scaled lipid accumulation score,[2],inactive: ≤ 0
CC1=CC(=O)C2=C(C)CC[C@@H]3[C@H](OC(=O)[C@H]3C)[C@@H]12 [Leucomisine],scaled lipid accumulation score,,inactive: ≤ 0
CN(C)CCOC(=O)C(c1ccccc1)C1(O)CCCC1 (stereo not given) [Cyclopentolate hydrochloride],scaled lipid accumulation score,,inactive: ≤ 0
same,scaled lipid accumulation score,library stock concentration: 6.1 mM,inactive: ≤ -0.001
same,scaled lipid accumulation score,[2],inactive: 0.177
CCC(=O)O[C@]1(C(=O)SCF)[C@H](C)C[C@H]2[C@@H]3C[C@H](F)C4=CC(=O)C=C[C@]4(C)[C@@]3(F)[C@@H](O)C[C@@]21C [Fluticasone propionate],scaled lipid accumulation score,,inactive: ≤ 0
same,scaled lipid accumulation score,[3],inactive: 0.758
same,scaled lipid accumulation score,[2],inactive: 0.745 and inactive: 0.513
CCC(=O)O[C@]1(C(=O)SCF)[C@H](C)C[C@H]2[C@@H]3C[C@H](F)C4=CC(=O)C=C[C@]4(C)[C@@]3(F)[C@@H](O)C[C@@]21C,scaled lipid accumulation score,[2],inactive: 0.435
CCOC(=O)c1ccnc(C(=O)OCC)c1,scaled lipid accumulation score,[1],inactive: ≤ 0
C[N+]1(C)CCCC1C(=O)O (stereo not given) [Stachydrine hydrochloride],scaled lipid accumulation score,,inactive: 0.046
Cc1c(S(=O)(=O)O)oc2c1C(=O)C(=O)c1c-2ccc2c1CCCC2(C)C [Tanshinone iia sulfonate sodium],scaled lipid accumulation score,[2],inactive: ≤ 0
CN1CCN(CCCN2c3ccccc3Sc3ccc(C(F)(F)F)cc32)CC1.Cl.Cl [Trifluoperazine dihydrochloride],scaled lipid accumulation score,[2],active: 0.914
CC(C)NC[C@H](O)COc1cccc2ccccc12.Cl,scaled lipid accumulation score,library stock concentration: 16.9 mM,active: 1.02
NCCCS(=O)(=O)O [3-Amino-1-propanesulfonic acid sodium],scaled lipid accumulation score,[2],inactive: 0.205
NCCCS(=O)(=O)O [3-aminopropanesulphonic acid],scaled lipid accumulation score,[2],inactive: ≤ 0
Nc1nc(/C(=C/CC(=O)O)C(=O)N[C@@H]2C(=O)N3C(C(=O)O)=CCS[C@H]23)cs1 [Ceftibuten],scaled lipid accumulation score,library stock concentration: 4.9 mM,inactive: ≤ 0
same,scaled lipid accumulation score,[2],inactive: ≤ -0.027
CC(C)[C@H](O)C(=O)N[C@@H](C)C(=O)N[C@@H]1C(=O)N(C)CCc2ccccc21,scaled lipid accumulation score,[3],inactive: 0.014
same,scaled lipid accumulation score,[2],inactive: 0.069
O=C(NCCCCCCNC(=O)ON=C1CCCCC1)ON=C1CCCCC1,scaled lipid accumulation score,[2],inactive: 0.062
same,scaled lipid accumulation score,library stock concentration: 12.7 mM,inactive: 0.056
C=CCN1CCc2cc(O)c(O)cc2C(c2ccccc2)C1 (stereo not given),scaled lipid accumulation score,[2],inactive: ≤ 0 and inactive: ≤ -0.006
CNCc1ccc(C)c(NC(=O)c2ccc(Nc3nc(-c4ccccc4)c4ccccc4n3)cc2)c1,scaled lipid accumulation score,[2],inactive: 0.17
Nc1ccc(C(=O)O)c(O)c1 [Sodium 4-Aminosalicylate],scaled lipid accumulation score,[3],inactive: ≤ 0
same,scaled lipid accumulation score,[2],inactive: ≤ -0.001
Nc1ccc(C(=O)O)c(O)c1 [Aminosalicylate sodium],scaled lipid accumulation score,[2],inactive: ≤ 0
Nc1ccc(C(=O)O)c(O)c1 [4-aminosalicylic acid],scaled lipid accumulation score,library stock concentration: 13.1 mM,inactive: ≤ 0
O=C1Nc2ccc(Cl)cc2[C@@](C#CC2CC2)(C(F)(F)F)O1 [Efavirenz],scaled lipid accumulation score,library stock concentration: 6.3 mM,inactive: ≤ 0
CC(C)NCC(O)COc1cccc2ccccc12.Cl (stereo not given),scaled lipid accumulation score,[2],active: 0.882
CC(C)c1cc(-c2n[nH]c(=O)n2-c2ccc3c(ccn3C)c2)c(O)cc1O [Ganetespib],scaled lipid accumulation score,library stock concentration: 2 mM,active: 0.915
same,scaled lipid accumulation score,[2],active: 0.885
CC(=O)Nc1ccc(S(=O)(=O)c2ccc(NC(C)=O)cc2)cc1 [Acedapsone],scaled lipid accumulation score,library stock concentration: 6 mM,inactive: ≤ 0
O=C(O)c1ccccc1Nc1cccc(C(F)(F)F)c1 [Flufenamic acid],scaled lipid accumulation score,,inactive: ≤ 0
same,scaled lipid accumulation score,[3],inactive: ≤ 0
same,scaled lipid accumulation score,library stock concentration: 7.1 mM,inactive: ≤ -0.004 and inactive: ≤ 0
same,scaled lipid accumulation score,[2],inactive: ≤ -0.001 and inactive: 0.118
same,scaled lipid accumulation score,library stock concentration: 17.8 mM,inactive: ≤ -0.021
CC[N+](C)(CC)CCC[n+]1c(-c2ccccc2)c2cc(N)ccc2c2ccc(N)cc21 [Propidium iodide],scaled lipid accumulation score,,inactive: ≤ 0
same,scaled lipid accumulation score,library stock concentration: 7.5 mM,inactive: ≤ -0.012
